# About 5,700 (2.6%) of roughly 220,000 compounds were called active. The inconclusive results got no clear call from the source; some entries with a clear call stand among them for comparison. Calls come from the whole dose curve; as a rule, active = well fitted inhibition curve with a large enough effect; inconclusive = small, poorly fitted or top-dose-only effect; inactive = no such curve, though single readings can be large or run the other way. Potencies of inconclusive entries are doubtful fits and often do not repeat.
# Target: Lysine-specific demethylase 5B (Homo sapiens) (UniProt Q9UGL1)
# Experiment: Primary screen for KDM5B Histone Demethylases FDH-coupled qHTS; note: nearly all actives have a fitted effect of over 70% in size
# Settings: FDH-coupled NADH fluorescence (FDH is formaldehyde dehydrogenase); series mostly up to 57.7 µM
# Outline: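 Inhibition is measured as reduced NADH fluorescence generation from FDH coupling to formaldehyde release. Truncated KDM5BΔAP at 200 nM final acts on H3K4me3 peptide (12.5 µM in substrate mix) in pH 7.5 HEPES buffer with Tween-20, 30 min, room temperature.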
# Potency is the fitted concentration of half-maximal effect; tags give direction and shape of the fitted curve.
# Sequence of UniProt Q9UGL1 (Q9UGL1 whole entry, looked up): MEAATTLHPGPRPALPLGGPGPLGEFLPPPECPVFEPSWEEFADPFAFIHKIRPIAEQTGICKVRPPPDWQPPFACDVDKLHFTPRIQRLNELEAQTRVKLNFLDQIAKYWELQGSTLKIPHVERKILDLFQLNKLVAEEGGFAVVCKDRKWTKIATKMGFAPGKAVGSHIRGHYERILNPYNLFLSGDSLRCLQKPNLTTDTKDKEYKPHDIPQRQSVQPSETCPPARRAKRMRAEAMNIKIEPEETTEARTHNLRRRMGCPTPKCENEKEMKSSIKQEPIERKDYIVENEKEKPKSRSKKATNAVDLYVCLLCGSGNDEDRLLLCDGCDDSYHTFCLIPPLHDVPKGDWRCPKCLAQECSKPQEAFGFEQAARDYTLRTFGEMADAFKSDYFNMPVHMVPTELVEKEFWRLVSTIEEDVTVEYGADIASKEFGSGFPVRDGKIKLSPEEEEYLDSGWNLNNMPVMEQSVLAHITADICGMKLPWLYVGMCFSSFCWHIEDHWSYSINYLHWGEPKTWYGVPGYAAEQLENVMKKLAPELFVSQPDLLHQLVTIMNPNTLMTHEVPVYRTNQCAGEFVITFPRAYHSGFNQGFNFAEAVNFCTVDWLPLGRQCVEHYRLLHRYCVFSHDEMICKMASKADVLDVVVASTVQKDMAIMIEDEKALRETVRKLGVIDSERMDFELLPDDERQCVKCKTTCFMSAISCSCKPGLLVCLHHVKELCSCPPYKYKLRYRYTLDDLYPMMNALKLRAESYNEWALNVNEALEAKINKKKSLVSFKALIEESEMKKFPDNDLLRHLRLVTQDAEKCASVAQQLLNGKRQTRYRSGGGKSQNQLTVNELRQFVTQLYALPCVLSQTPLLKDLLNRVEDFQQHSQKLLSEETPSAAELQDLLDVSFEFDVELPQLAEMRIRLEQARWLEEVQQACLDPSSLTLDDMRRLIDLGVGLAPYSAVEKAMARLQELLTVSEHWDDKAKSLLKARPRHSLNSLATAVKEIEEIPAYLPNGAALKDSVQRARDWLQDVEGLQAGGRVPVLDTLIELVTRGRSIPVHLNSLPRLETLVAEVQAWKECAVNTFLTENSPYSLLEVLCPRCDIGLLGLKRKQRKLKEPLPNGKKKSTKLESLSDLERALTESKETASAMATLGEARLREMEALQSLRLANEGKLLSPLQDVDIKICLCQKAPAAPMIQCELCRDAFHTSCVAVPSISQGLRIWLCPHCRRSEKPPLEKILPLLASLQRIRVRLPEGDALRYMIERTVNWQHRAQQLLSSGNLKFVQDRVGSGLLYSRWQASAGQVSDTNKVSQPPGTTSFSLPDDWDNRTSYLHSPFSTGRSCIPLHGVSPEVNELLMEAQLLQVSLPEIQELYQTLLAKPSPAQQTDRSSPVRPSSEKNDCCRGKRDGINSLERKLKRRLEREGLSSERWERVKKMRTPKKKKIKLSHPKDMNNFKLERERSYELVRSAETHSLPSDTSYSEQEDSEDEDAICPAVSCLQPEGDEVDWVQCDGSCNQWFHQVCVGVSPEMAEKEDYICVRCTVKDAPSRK
row,SMILES,Potency
1,CCCCc1[nH]nc2c1C1(C(=O)Nc3ccc(Cl)cc31)C(C#N)=C(N)O2 (centres undefined),inactive
2,CN1C[C@H](NS(C)(=O)=O)CCC[C@@H](C(=O)NCc2cc(F)cc(F)c2)CC1=O,"inconclusive: 39.8 µM [inhibitor, partial curve, poor fit]"
3,NC1(C(=O)O)CCC(c2ccccc2)CC1 (centres undefined),inactive
4,Clc1ccc(N/N=C/C(Br)=C/c2ccccc2)cc1,inactive
5,CCOc1ccccc1NC(=O)C1CCN(S(=O)(=O)c2c(C)noc2/C=C/c2ccco2)CC1,"inconclusive: 1.78 µM [inhibitor, partial curve, poor fit]"
6,CC(NC(=O)C1(c2ccccc2)CC1)C12CC3CC(CC(C3)C1)C2 (centres undefined),inactive
7,Cc1cc(C)cc(-c2nnc(SCc3ncc(-c4ccccc4)o3)o2)c1,"inconclusive: 35.5 µM [inhibitor, single point]"
8,Cc1cccc2sc(NC(=O)C3CCN(C(=O)c4ccco4)CC3)nc12,"inconclusive: 39.8 µM [inhibitor, partial curve, poor fit]"
9,COc1ccc(CC(=O)Nc2c(C(=O)N3CCN(c4ccccc4)CC3)oc3ccccc23)cc1OC,"inconclusive: 17.8 µM [inhibitor, partial curve, poor fit]"
10,Cc1cccc(C(=O)N2C[C@@H]3CCCN4CCC[C@@H]([C@H]34)[C@H]2CCCC(=O)NCC2CC2)c1,inactive
11,Cc1c(C)c2ccc(OCC(=O)NCc3cccnc3)cc2oc1=O,"inconclusive: 7.08 µM [inhibitor, full curve, poor fit]"
12,O=C(Cc1ccccc1)N1CCCC2(CC(c3cccnc3)=NO2)C1 (centres undefined),inactive
13,O=C(Nc1ccc(F)cc1F)C1CCN(c2ncccn2)CC1,"inconclusive: 25.1 µM [inhibitor, partial curve, poor fit]"
14,CC(C)C(NC(=O)c1nn(C)c(=O)c2ccccc12)c1ccccc1 (centres undefined),inactive
15,CC(C)CCn1cnc2c1c(=O)n(CC(=O)Nc1cc(F)ccc1F)c(=O)n2Cc1ccccc1,inactive
16,O=C1CN(Cc2ccc(-c3ccsc3)cc2)CCN1c1cc(Cl)ncn1,"inconclusive: 14.1 µM [inhibitor, partial curve]"
17,Cc1noc(C)c1-c1cc2c(c(-c3cnn(C)c3)c1)C(=O)N(C)C2,active: 39.8 µM
18,COc1ccc(CN2C(=O)[C@@H]3C[C@@H](O)CN3C3(CN(C4CCC4)C3)C2=O)cc1,inactive
19,NC(=O)c1ccc(OC2CCN(C(=O)c3ccc(F)cc3)CC2)nc1,inactive
20,N#CCCN(CCC#N)C(=O)c1cccs1,inactive
21,O=C(c1cccs1)N1CCN(Cc2cc(C3CC3)n[nH]2)CC(O)C1 (centres undefined),"inconclusive: 15.8 µM [inhibitor, partial curve, poor fit]"
22,CCC(NC(=O)Cc1n[nH]c(=O)c2ccccc12)c1ccc(OC)cc1 (centres undefined),inactive

row,SMILES,Potency
1,Cc1ccc(CNC(=O)N2CCCC(C(F)(F)F)C2)cc1 (centres undefined),inactive
2,c1ccc(-c2ccc(CNCc3ccco3)cc2)cc1,inactive
3,O=C(CCN1CCN(c2cnccn2)CC1)Nc1ccc(F)c(F)c1,"inconclusive: 25.1 µM [inhibitor, single point]"
4,O=C(CCNS(=O)(=O)c1ccc2c(c1)CCCC(=O)N2)Nc1cccc(Cl)c1,"inconclusive: 1.78 µM [inhibitor, full curve, poor fit]"
5,COc1ccc(C(=O)c2c(N)c(-c3nc(-c4ccc5c(c4)OCO5)cs3)c3ccccn23)cc1,"inconclusive: 22.4 µM [inhibitor, partial curve, poor fit]"
6,Cc1c(C(=O)O)sc2ncnc(NCC3(O)CCCCC3)c12,active: 20 µM
7,COC[C@H]1C[C@@H](NC(=O)c2cc(C)oc2C)[C@H](O)[C@@H]1O,"inconclusive: 35.5 µM [inhibitor, partial curve]"
8,COCCN1C(=O)c2ccccc2N2C(=O)CCC12C(=O)OCc1cc(=O)oc2cc(OC)ccc12 (centres undefined),"inconclusive: 20 µM [inhibitor, partial curve, poor fit]"
9,CCOc1ccc(-n2cc(-c3ccccc3)c3c(NCCc4ccccc4)ncnc32)cc1,"inconclusive: 25.1 µM [inhibitor, partial curve, poor fit]"
10,Cc1cc(CNC(=O)C2CCCN2C(=O)OC(C)(C)C)ccc1F (centres undefined),inactive
11,Cc1ccc(Nc2ccc3cc(S(=O)(=O)N4CCC(C)CC4)ccc3n2)c(Cl)c1,"inconclusive: 31.6 µM [inhibitor, partial curve, poor fit]"
12,CCCCc1nn(CC(=O)N(C)Cc2ccc(C)o2)c(=O)n1CC,"inconclusive: 15.8 µM [inhibitor, partial curve]"
13,Cc1cccc(/C=C/C(=O)c2cc3ccccc3oc2=O)c1,"inconclusive: 31.6 µM [inhibitor, single point]"
14,O=C(Nc1ccnn1C1CCN(C/C=C/c2ccc(F)cc2)CC1)C1CCCC1,"inconclusive: 20 µM [inhibitor, single point]"
15,COc1ccc(-c2cc(N3CCC(NC(=O)c4cccc(F)c4)C3)n[nH]2)cc1 (centres undefined),"inconclusive: 8.91 µM [inhibitor, partial curve]"
16,COc1ccc([S+](=O)([O-])c2nnn3c2nc(NC2CC2)c2ccccc23)cc1,active: 89.1 µM
17,O=C(CCc1ccsc1)NC1CCCC1,inactive
18,CC(=O)Nc1ccc(NC(=O)c2oc3c(c2C)-c2nn(Cc4ccccc4Cl)cc2CC3)cc1,"inconclusive: 17.8 µM [inhibitor, partial curve, poor fit]"
19,Cc1cc(C)nc(NS(=O)(=O)c2ccc(Nc3nc(-c4ccc(C(C)C)cc4)cs3)cc2)n1,"inconclusive: 20 µM [inhibitor, single point]"
20,Cc1cc(C2CC(C(=O)NCc3ccco3)CN(C(=O)c3ccccc3)C2)ccc1F (centres undefined),"inconclusive: 28.2 µM [inhibitor, partial curve]"
21,O=C(NCc1cccc(F)c1)c1nc2c(o1)CCN(CC1CCCC1)CC2,"inconclusive: 25.1 µM [inhibitor, partial curve, poor fit]"
22,Cc1cc(Cl)ccc1OC(C)c1nc(-c2ccc(Br)o2)no1 (centres undefined),inactive
